In paper PMC7016264, “Redox requirements for ubiquitin-like urmylation of Ahp1, a 2-Cys peroxiredoxin from yeast” (Redox Biology, 2020):
Where a chain is given by its changes, count along the chain named. Names and notes keep the numbering of the source. No constants are given. Whether binding was seen depends on the method and setting. Some binding calls cover weakened binding; strength is not graded here. For some assays here: Where a sequence is shown, tags or fusion partners need not be part of it.

Tests used:
[1] = target: Ahp1 (untagged, in yeast cell extract) (S. cerevisiae (endogenous in yeast)) (UniProt P38013); experiment: non-reducing SDS-PAGE with anti-Ahp1 Western blot (intersubunit disulfides); yeast lysates made with 10 mM NEM; sample buffer without beta-mercaptoethanol; disulfide-linked Ahp1 dimer (AID) detected by anti-Ahp1 serum; also in trx1, trx2, trr1 deletion strains and after t-BOOH (0.3-10 mM, 5 min)
[2] = target: c-Myc tagged Ahp1 (in yeast cell extract) (S. cerevisiae) (UniProt P38013); experiment: as above
[3] = target: Ahp1 C120S (expressed in yeast) (S. cerevisiae) (UniProt P38013); experiment: as above
[4] = target: T1, His-tagged Ahp1 F58A (recombinant) (S. cerevisiae), P38013; experiment: SEC-MALS; proteins reduced with 50 mM DTT, exchanged into 20 mM HEPES pH 7.5, 100 mM NaCl, 1 mM TCEP, diluted to 125 uM; dimer to monomers; both purified; details: remark: other sources report otherwise
T1 chain: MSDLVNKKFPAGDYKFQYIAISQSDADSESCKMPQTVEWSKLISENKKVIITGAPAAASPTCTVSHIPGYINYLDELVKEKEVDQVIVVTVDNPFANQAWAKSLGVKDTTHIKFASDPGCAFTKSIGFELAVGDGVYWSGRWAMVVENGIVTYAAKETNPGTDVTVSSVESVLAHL

[5] = target: T2, His-tagged Ahp1 F58,95A (recombinant) (S. cerevisiae), P38013; experiment: as above; details: remark: other sources report otherwise
T2 chain: T1 chain with F95A

B1: Ahp1 (untagged, in yeast cell extract) (enzyme, UniProt P38013 1-176)
chain: T1 chain with A58F
modifications: intersubunit disulfides between Cys-31 and Cys-62 (oxidized dimer)
[1]
  binding: binds

B2: c-Myc tagged Ahp1 (in yeast cell extract) (enzyme, UniProt P38013 1-176)
chain: T1 chain with A58F
modifications: intersubunit disulfides (oxidized dimer)
[2]
  binding: binds

B3: Ahp1 C120S (expressed in yeast) (enzyme, UniProt P38013 1-176)
chain: T1 chain with A58F, C120S
modifications: intersubunit disulfides (oxidized dimer)
[3]
  binding: binds

B4: His-tagged Ahp1 F58A (recombinant), P38013 1-176 (enzyme)
chain: T1 chain
[4]
  binding: no binding (tested: 125 uM)

B5: His-tagged Ahp1 F58,95A (recombinant), P38013 1-176 (enzyme)
chain: T1 chain with F95A
[5]
  binding: no binding (tested: 125 uM)
